Measured values taken from the supplement of paper PMC11741623.
This is one part of the list. Interaction screen of human proteins with wild-type SARS-CoV-2 proteins by split-DHFR complementation in yeast, 1 µg/mL methotrexate. Value = fitness of the pair (three or more lineages) minus that of the viral protein without a human partner, on a scale set by negative (0) and fused positive (1) controls, mean of up to three cultures; higher = more likely to interact. Active = false discovery rate below 0.05 (one-sided t-test) in at least one culture. Nearly all pairs are not hits, and differences among them are mostly noise (correlation between cultures about 0.3); most hits were seen in one culture only. Human sequences are the Swiss-Prot entries looked up by gene name; the clone may be another isoform. NSP2 values were corrected by the authors for a growth advantage. Listed are human proteins with a hit and a random twelfth of the others.

B1: GPR83, Q9NYM4 (protein)
chain: MVPHLLLLCLLPLVRATEPHEGRADEQSAEAALAVPNASHFFSWNNYTFSDWQNFVGRRRYGAESQNPTVKALLIVAYSFIIVFSLFGNVLVCHVIFKNQRMHSATSLFIVNLAVADIMITLLNTPFTLVRFVNSTWIFGKGMCHVSRFAQYCSLHVSALTLTAIAVDRHQVIMHPLKPRISITKGVIYIAVIWTMATFFSLPHAICQKLFTFKYSEDIVRSLCLPDFPEPADLFWKYLDLATFILLYILPLLIISVAYARVAKKLWLCNMIGDVTTEQYFALRRKKKKTIKMLMLVVVLFALCWFPLNCYVLLLSSKVIRTNNALYFAFHWFAMSSTCYNPFIYCWLNENFRIELKALLSMCQRPPKPQEDRPPSPVPSFRVAWTEKNDGQRAPLANNLLPTSQLQSGKTDLSSVEPIVTMS
B2: LYPLAL1, Q5VWZ2 (protein)
chain: MAAASGSVLQRCIVSPAGRHSASLIFLHGSGDSGQGLRMWIKQVLNQDLTFQHIKIIYPTAPPRSYTPMKGGISNVWFDRFKITNDCPEHLESIDVMCQVLTDLIDEEVKSGIKKNRILIGGFSMGGCMAIHLAYRNHQDVAGVFALSSFLNKASAVYQALQKSNGVLPELFQCHGTADELVLHSWAEETNSMLKSLGVTTKFHSFPNVYHELSKTELDILKLWILTKLPGEMEKQK
B3: KCNS3, Q9BQ31 (protein)
chain: MVFGEFFHRPGQDEELVNLNVGGFKQSVDQSTLLRFPHTRLGKLLTCHSEEAILELCDDYSVADKEYYFDRNPSLFRYVLNFYYTGKLHVMEELCVFSFCQEIEYWGINELFIDSCCSNRYQERKEENHEKDWDQKSHDVSTDSSFEESSLFEKELEKFDTLRFGQLRKKIWIRMENPAYCLSAKLIAISSLSVVLASIVAMCVHSMSEFQNEDGEVDDPVLEGVEIACIAWFTGELAVRLAAAPCQKKFWKNPLNIIDFVSIIPFYATLAVDTKEEESEDIENMGKVVQILRLMRIFRILKLARHSVGLRSLGATLRHSYHEVGLLLLFLSVGISIFSVLIYSVEKDDHTSSLTSIPICWWWATISMTTVGYGDTHPVTLAGKLIASTCIICGILVVALPITIIFNKFSKYYQKQKDIDVDQCSEDAPEKCHELPYFNIRDIYAQRMHTFITSLSSVGIVVSDPDSTDASSIEDNEDICNTTSLENCTAK
B4: ACSM1, Q08AH1 (protein)
chain: MQWLMRFRTLWGIHKSFHNIHPAPSQLRCRSLSEFGAPRWNDYEVPEEFNFASYVLDYWAQKEKEGKRGPNPAFWWVNGQGDEVKWSFREMGDLTRRVANVFTQTCGLQQGDHLALMLPRVPEWWLVAVGCMRTGIIFIPATILLKAKDILYRLQLSKAKGIVTIDALASEVDSIASQCPSLKTKLLVSDHSREGWLDFRSLVKSASPEHTCVKSKTLDPMVIFFTSGTTGFPKMAKHSHGLALQPSFPGSRKLRSLKTSDVSWCLSDSGWIVATIWTLVEPWTAGCTVFIHHLPQFDTKVIIQTLLKYPINHFWGVSSIYRMILQQDFTSIRFPALEHCYTGGEVVLPKDQEEWKRRTGLLLYENYGQSETGLICATYWGMKIKPGFMGKATPPYDVQVIDDKGSILPPNTEGNIGIRIKPVRPVSLFMCYEGDPEKTAKVECGDFYNTGDRGKMDEEGYICFLGRSDDIINASGYRIGPAEVESALVEHPAVAESAVVGSPDPIRGEVVKAFIVLTPQFLSHDKDQLTKELQQHVKSVTAPYKYPRKVEFVSELPKTITGKIERKELRKKETGQM

What follows are binders tested against SARS-CoV-2 E (assay: yeast fitness gain over the viral ORF with no human partner (scaled fitness); higher = more likely to interact).
Method: (§1)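 Split mouse DHFR complementation in pooled diploid yeast: human ORFeome clones carry one fragment and viral ORFs the other; barcoded lineages compete in 1 µg/mL methotrexate and fitness is read by barcode sequencing in up to three cultures.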

Row | Binder | yeast fitness gain
1 | B1 | inactive: -0.0269
2 | B2 | inactive: 0.0377
3 | B3 | inactive: 0.0187
4 | B4 | inactive: -0.0979

Each binder was assayed against SARS-CoV-2 M in the same assay as above.
Method: as §1

Row | Binder | yeast fitness gain
5 | B1 | inactive: -0.108
6 | B2 | inactive: 0.0609
7 | B4 | inactive: 0.0292

The binders below were run against SARS-CoV-2 N in the same assay as above.
Method: as §1

Row | Binder | yeast fitness gain
8 | B1 | inactive: 0.00371
9 | B3 | inactive: 0.0211
10 | B4 | inactive: -0.0761

What follows are binders tested against SARS-CoV-2 NSP1 in the same assay as above.
Method: as §1

Row | Binder | yeast fitness gain
11 | B1 | inactive: 0.00572
12 | B4 | inactive: 0.0475

The binders below were run against SARS-CoV-2 NSP10 in the same assay as above.
Method: as §1

Row | Binder | yeast fitness gain
13 | B1 | inactive: 0.0428
14 | B2 | inactive: 0.0237
15 | B4 | inactive: -0.0741

Each binder was assayed against SARS-CoV-2 NSP12 in the same assay as above.
Method: as §1

Row | Binder | yeast fitness gain
16 | B1 | inactive: 0.0362
17 | B2 | inactive: -0.096
18 | B4 | inactive: -0.0308

The binders below were run against SARS-CoV-2 NSP13 in the same assay as above.
Method: as §1

Row | Binder | yeast fitness gain
19 | B1 | inactive: 0.0203
20 | B2 | inactive: -0.0855
21 | B4 | inactive: -0.0531

These binders were tested against SARS-CoV-2 NSP14 in the same assay as above.
Method: as §1

Row | Binder | yeast fitness gain
22 | B1 | inactive: 0.0273
23 | B4 | inactive: -0.409

The binders below were run against SARS-CoV-2 NSP15 in the same assay as above.
Method: as §1

Row | Binder | yeast fitness gain
24 | B1 | inactive: 0.0118
25 | B4 | inactive: -0.0629

Each binder was assayed against SARS-CoV-2 NSP16 in the same assay as above.
Method: as §1

Row | Binder | yeast fitness gain
26 | B1 | inactive: 0.0542
27 | B2 | inactive: -0.133
28 | B4 | inactive: -0.0587

What follows are binders tested against SARS-CoV-2 NSP2 in the same assay as above.
Method: as §1

Row | Binder | yeast fitness gain
29 | B1 | inactive: -0.0912
30 | B2 | inactive: -0.275
31 | B4 | inactive: -0.153

Each binder was assayed against SARS-CoV-2 NSP4 in the same assay as above.
Method: as §1

Row | Binder | yeast fitness gain
32 | B1 | inactive: 0.017
33 | B3 | inactive: 0.0176

These binders were tested against SARS-CoV-2 NSP5 in the same assay as above.
Method: as §1

Row | Binder | yeast fitness gain
34 | B1 | inactive: 0.00269
35 | B2 | inactive: 0.0295
36 | B4 | inactive: 0.0536

What follows are binders tested against SARS-CoV-2 NSP6 in the same assay as above.
Method: as §1

Row | Binder | yeast fitness gain
37 | B1 | inactive: 0.0435
38 | B2 | inactive: -0.352
39 | B4 | inactive: -0.0669

The binders below were run against SARS-CoV-2 NSP7 in the same assay as above.
Method: as §1

Row | Binder | yeast fitness gain
40 | B1 | inactive: 0.0625
41 | B4 | inactive: -0.0397

Each binder was assayed against SARS-CoV-2 NSP8 in the same assay as above.
Method: as §1

Row | Binder | yeast fitness gain
42 | B1 | inactive: 0.0204
43 | B2 | inactive: -0.00463
44 | B4 | inactive: 0.0205

Each binder was assayed against SARS-CoV-2 NSP9 in the same assay as above.
Method: as §1

Row | Binder | yeast fitness gain
45 | B1 | inactive: 0.03
46 | B4 | inactive: 0.09

Each binder was assayed against SARS-CoV-2 ORF10 in the same assay as above.
Method: as §1

Row | Binder | yeast fitness gain
47 | B1 | inactive: -0.0299
48 | B2 | inactive: 0.0212
49 | B4 | inactive: 0.0451

These binders were tested against SARS-CoV-2 ORF3A in the same assay as above.
Method: as §1

Row | Binder | yeast fitness gain
50 | B1 | inactive: -0.02
51 | B4 | inactive: -0.0266

Each binder was assayed against SARS-CoV-2 ORF3B in the same assay as above.
Method: as §1

Row | Binder | yeast fitness gain
52 | B1 | inactive: 0.00969
53 | B2 | inactive: -0.0628
54 | B4 | inactive: -0.1

What follows are binders tested against SARS-CoV-2 ORF6 in the same assay as above.
Method: as §1

Row | Binder | yeast fitness gain
55 | B1 | inactive: 0.0263
56 | B2 | inactive: 0.0488
57 | B4 | inactive: -0.0174

What follows are binders tested against SARS-CoV-2 ORF7A in the same assay as above.
Method: as §1

Row | Binder | yeast fitness gain
58 | B1 | inactive: -0.00306
59 | B2 | inactive: -0.054
60 | B4 | inactive: 0.0101

These binders were tested against SARS-CoV-2 ORF7B in the same assay as above.
Method: as §1

Row | Binder | yeast fitness gain
61 | B1 | inactive: 0.0169
62 | B2 | inactive: -0.0838
63 | B4 | inactive: 0.00637

These binders were tested against SARS-CoV-2 ORF8 in the same assay as above.
Method: as §1

Row | Binder | yeast fitness gain
64 | B1 | inactive: -0.0248
65 | B2 | inactive: -0.0317
66 | B4 | inactive: -0.0145

What follows are binders tested against SARS-CoV-2 ORF9B in the same assay as above.
Method: as §1

Row | Binder | yeast fitness gain
67 | B1 | inactive: -0.00571
68 | B2 | inactive: 0.0545
69 | B4 | inactive: -0.0518

What follows are binders tested against SARS-CoV-2 ORF9Bwu (the 73-codon ORF) in the same assay as above.
Method: as §1

Row | Binder | yeast fitness gain
70 | B1 | inactive: 0.0516
71 | B2 | inactive: -0.236
72 | B4 | inactive: -0.0891

Each binder was assayed against SARS-CoV-2 S in the same assay as above.
Method: as §1

Row | Binder | yeast fitness gain
73 | B1 | inactive: 0.0253
74 | B2 | inactive: 0.108
75 | B4 | inactive: -0.0505
